Data taken from ChEMBL document CHEMBL4888484, “Replenishing the malaria drug discovery pipeline: Screening and hit evaluation of the MMV Hit Generation Library 1 (HGL1) against asexual blood stage Plasmodium falciparum ,using a nano luciferase reporter read-out” (2022).
Screen size: about 150,000 compounds; about 540 (0.36%) showed an effect of 50% or more. The list shows a part of the results.

System: Plasmodium falciparum
Assay: Primary screen in NF54 nanoGlo assay, in single point, at 2uM, 72h; a lower Z score goes with more inhibition
Format: functional, Erythrocyte
Conditions: timepoint 72 hour

Row | Compound | % Inhibition [%] | Z score | % Inhibition (2 µM) [%] | Z score (2 µM)
1 | Cn1cnc(C(=O)N2CCCCCCn3c(nnc3-c3ccc(F)cc3)CC2)c1 | -8 | 0.99 | – | –
2 | COc1ccc(CCNC(=O)Cn2nc(C(F)(F)F)n(C)c2=O)cc1OC | -7 | 0.79 | – | –
3 | CC(=O)c1ccc(CNc2nc(C)nc3c2cnn3C(C)(C)C)nc1C | -11 | 1.56 | – | –
4 | O=C(NCc1cccnc1Oc1ccc(F)cc1F)[C@@H]1CCCN1 | 9 | -1.56 | – | –
5 | CCc1nnc(CNC(=O)Nc2nc(C)cs2)o1 | -4 | 0.58 | – | –
6 | CCC[C@H](C)C(=O)NCCNC(=O)c1ccn(C(C)C)n1 | -15 | 1.55 | – | –
7 | CC(C)Cc1nc2n[nH]c(N)c2c2c1COC(C)(C)C2 | -9 | 1.04 | – | –
8 | Cn1cc(CC(=O)NC2CCCC2)c2cccnc21 | -1 | 0.17 | – | –
9 | CCCc1nc(-c2ccccc2)cn2c1c(C)c1ccccc12 | 5 | -0.53 | – | –
10 | Cc1noc(C)c1CC(=O)Nc1cnns1 | 25 | -2.8 | – | –
11 | Cc1ocnc1CNC(=O)c1ccc(O)cc1O | -12 | 1.39 | – | –
12 | O=C(Nc1nnc(CCN2CCCCC2)s1)c1ccccc1 | 1 | -0.07 | – | –
13 | OCc1cc(-c2ccc(N3CCOCC3)cc2)c(F)cn1 | -9 | 0.83 | – | –
14 | Cc1ccccc1C(CN1CCOCC1)NC1CCOC(C)(C)C1 (configuration not stated) | 5 | -0.71 | – | –
15 | COc1ncccc1CNC(=O)N(C)C1CCCCCCC1 | 3 | -0.36 | – | –
16 | CCCc1nnc(NC[C@@H](C(C)C)N2CCCC2)o1 | 6 | -0.84 | – | –
17 | O=C(c1ccc(F)cc1Cl)N1CCC2(CC1)C[C@@H](O)CCO2 | -9 | 1.74 | – | –
18 | O=C(NCc1ccc(F)cc1)C(=O)NC[C@H](O)c1cccc2ccccc12 | 2 | -0.34 | – | –
19 | CC(=O)N(c1nc(CNc2ccc(C)cc2C)cs1)C1CC1 | -3 | 0.44 | – | –
20 | Cn1cc(N)c(C(=O)N2CCC[C@@H]2CO)n1 | -14 | 1.85 | – | –
21 | O=C(c1ccc(Br)o1)N1CCCc2cc(S(=O)(=O)N3CCCC3)ccc21 | -17 | 1.59 | – | –
22 | Cc1ccc2c(C(=O)O)cc(NC(=O)C3CCC3)cc2n1 | -17 | 1.46 | – | –

Row | Compound | % Inhibition [%] | Z score | % Inhibition (2 µM) [%] | Z score (2 µM)
23 | CC(=O)NC[C@H]1CCN(S(=O)(=O)c2cccc(C#N)c2)C[C@H]1N(C)C | -6 | 0.74 | – | –
24 | CC(C)N1CCC(N[C@@H]2COCC[C@@H]2Oc2ccc(F)cc2)CC1 | -11 | 1.41 | – | –
25 | COc1ccc([C@@H]2NC(=O)c3cnn(-c4ccccc4)c3N2)cc1COc1ccccc1C | -32 | 3.78 | – | –
26 | CN1C(=O)c2ccc(NC(=O)c3cncc(Br)c3)cc2C1=O | -10 | 1.36 | – | –
27 | Cc1ccn2c(CN3CCC(NC(=O)CC4CCCC4)CC3)cnc2c1 | -9 | 1.4 | – | –
28 | Cc1cc(CN2CCCO[C@@H](Cn3cccn3)C2)on1 | 8 | -1.09 | – | –
29 | O=C1NC[C@H]2O[C@H](CCOc3ccccc3C(=O)N3CCN(C4CCOCC4)C[C@@H]13)CC[C@@H]2O | -1 | 0.09 | – | –
30 | COc1ccc([C@@H]2CC(c3cccc(C)c3)=NN2C(=O)CN2CCN(c3ccccc3F)CC2)cc1 | -10 | 1.24 | – | –
31 | CC1CC(C)CC(S(=O)(=O)NCc2cn(C3CCC3)nn2)C1 (configuration not stated) | -2 | 0.38 | – | –
32 | COc1ncnc(OC)c1NC(=O)c1ccc(F)cc1 | 25 | -2.84 | – | –
33 | CC(O)C1CN(C(=O)N[C@@H]2C[C@H]2c2ccc(Cl)cc2)CCO1 (some centres not stated) | -6 | 1.19 | – | –
34 | Cc1cc(CNc2nc3c(s2)c(C)nn3C)ccn1 | -6 | 1.18 | – | –
35 | CCC1C(=O)NCCN1C[C@@H]1CCO[C@H]1c1ccnn1C (some centres not stated) | 0 | 0.04 | – | –
36 | Cc1nccc(NC[C@@H]2CC[C@H](C)N2C)n1 | -16 | 1.91 | – | –
37 | COc1cccc(-c2c[nH]c(C)n2)c1C(=O)N(C(C)C)C(C)C | -11 | 1.42 | – | –
38 | Nc1cccnc1N1CCc2ccccc21 | – | – | 7 | -1.12
39 | Cc1cc(CS(=O)(=O)CC(=O)Nc2ccc(F)cc2F)on1 | -9 | 0.96 | – | –
40 | O=C([C@@H]1Cc2cc(Cl)ccc2O1)N1CCC(Cc2ccccc2)CC1 | -4 | 0.76 | – | –
41 | Cn1nncc1CNCc1ccc(OCCN2CCOCC2)c(Cl)c1 | -6 | 0.68 | – | –
42 | COCCNC(=O)C(=O)NCC[C@H](O)c1ccccc1 | -5 | 0.77 | – | –
43 | O=C(Nc1nc(-c2ccccc2)cs1)c1cc(F)c(N2CCCC2)c(F)c1F | 8 | -0.91 | – | –
44 | O=C(Cc1ccc(O)c(F)c1)NC1Cc2ccccc2C1 | 22 | -2.76 | – | –

Row | Compound | % Inhibition [%] | Z score | % Inhibition (2 µM) [%] | Z score (2 µM)
45 | CCc1ccc(NC(=O)[C@H](C)N2CCC(NS(=O)(=O)c3cccs3)CC2)cc1 | 76 | -7.11 | – | –
46 | CCc1nsc(NCc2cnn3c2CCCC3)n1 | 0 | -0.05 | – | –
47 | COCc1cccc(C(=O)NC2C3CCCOC3C2(C)C)c1 (configuration not stated) | 4 | -0.56 | – | –
48 | CC(C)c1ccsc1C(=O)NCCc1csc(N2CCCC2)n1 | -8 | 1.12 | – | –
49 | COc1ccc(OCc2nc(C(=O)N3CC(n4cccn4)C3)co2)cc1 | 16 | -2.16 | – | –
50 | CC(C)N1CCN(C(=O)CCN2Cc3ncccc3C2=O)CC1 | 2 | -0.28 | – | –
51 | CCCCNC(=O)N1CCC[C@@]2(CCC(=O)N(Cc3cccnc3)C2)C1 | -12 | 1.59 | – | –
52 | Cc1cnccc1NCCNCc1cccc(O)c1Cl | 88 | -13.09 | – | –
53 | COc1ccccc1CCC(=O)N1C[C@@H]2C[C@H](NC(=O)c3ccccc3)[C@H]1C2 | -8 | 1.24 | – | –
54 | COc1cccc(-c2nc3ccc(C(=O)NC[C@H]4CCCCO4)cc3o2)c1 | -8 | 1.11 | – | –
55 | CC[C@@H](Cc1ccc(C(F)(F)F)cc1)C(=O)N[C@H]1CC[C@H](O)CC1 | -13 | 1.42 | – | –
56 | O=C(NCc1nccnc1-c1ccoc1)c1ccccn1 | -17 | 3.32 | – | –
57 | CCN(CC)CCCn1c(-c2ccc(OC)cc2)cn2c3ccccc3nc12 | 7 | -1.29 | – | –
58 | c1ccc(-n2ncc(CN3CCOc4ccccc43)n2)cc1 | -12 | 1.69 | – | –
59 | O=C(COc1ccc(-c2nc3ccccc3s2)cc1)NCc1ccco1 | -4 | 0.64 | – | –
60 | COc1ccccc1/N=C(/NC(=O)c1cccc(C)c1)N1CCN(c2cc(C)ccc2C)CC1 | 2 | -0.31 | – | –
61 | COc1cn(-c2cccc(C(F)(F)F)c2)nc1C(=O)N[C@H](c1ccccc1F)c1nccn1C | 1 | -0.23 | – | –
62 | CN(Cc1cccnc1)c1ccc(S(=O)(=O)C(F)F)cc1 | 40 | -5.18 | – | –
63 | COc1ccc(Cn2nnc3c(C)nn4c(-c5ccc(OC)cc5)nnc4c32)cc1 | -10 | 1.84 | – | –
64 | CC#CCn1cc(CNC(=O)OC(C)(C)C)cn1 | -8 | 0.98 | – | –
65 | COc1ccc(NC(N)=NC[C@H]2CCCO2)cc1 | -3 | 0.36 | – | –
66 | Cc1nc(NC(=O)[C@H]2CC(=O)N(c3n[nH]c4cc(Br)ccc34)C2)sc1C | 2 | -0.26 | – | –

Row | Compound | % Inhibition [%] | Z score | % Inhibition (2 µM) [%] | Z score (2 µM)
67 | O=C1N[C@H](CO)C(=O)N[C@H]1COCc1ccccc1 | -6 | 1.05 | – | –
68 | O=C(Nc1nnc(-c2cccc(Br)c2)s1)[C@@H]1CCCN1C(=O)c1ccc2ccccc2c1 | -18 | 1.76 | – | –
69 | NC(=O)C(Cc1ccccc1)NC(=O)C1CC1c1c(F)cccc1F (configuration not stated) | 5 | -0.61 | – | –
70 | Cc1nn(C(C)C)c2nc(C3CC3)cc(C(=O)N(C)Cc3c(Br)cnn3C)c12 | 5 | -0.8 | – | –
71 | CC(C)(C)C(=O)N1CCC(CS(=O)(=O)c2ccccc2)CC1 | 0 | -0.05 | – | –
72 | O=C(C[C@H](c1ccc(O)cc1)C1CC1)Nc1cnoc1 | 2 | -0.21 | – | –
73 | C[C@H]1CC(=O)N(CCOc2ccccc2Br)C1=O | 0 | 0 | – | –
74 | COc1ccc(-c2nc(CC(C)C)n[nH]2)c(OC)n1 | 5 | -0.63 | – | –
75 | CCOc1ccc(N2C[C@@H](C(=O)Nc3ccccc3C(=O)NCc3ccc(OC)cc3)CC2=O)cc1 | -19 | 2.01 | – | –
76 | CC(C)NC(=O)CNC(=O)c1ccc(Cl)s1 | -11 | 1.36 | – | –
77 | O=C(CCCc1ccccn1)N1CCN([C@@H](CO)c2cccc(Cl)c2)CC1 | -10 | 1.81 | – | –
78 | CCCN(C[C@H]1CCOC1)C(=O)Nc1ccc(C)cc1Cl | 2 | -0.22 | – | –
79 | Cc1ccc2nc(C3CC3)cc(C(=O)N(C)CC3(CO)CC3)c2c1 | -6 | 0.73 | – | –
80 | CCOC1CC(NC(=O)CCc2c(C)[nH]c(=O)c(C#N)c2C)C1(C)C (configuration not stated) | 3 | -0.6 | – | –
81 | CC1(C)NC(=O)N(CC(=O)Nc2cccc(N3C(=O)CNC3=O)c2)C1=O | 10 | -1.33 | – | –
82 | CC[C@@]1(CO)N[C@H](c2cccc(Oc3ccccc3)c2)[C@@H]2CN(C)C[C@@H]21 | 3 | -0.38 | – | –
83 | COc1ccc(OCC(=O)Nc2sc3c(c2C#N)CCCCC3)cc1 | -5 | 0.7 | – | –
84 | CC(C)[C@@H]1C(=O)Nc2ccc(S(=O)(=O)N3CCCCCC3)cc21 | -18 | 1.76 | – | –
85 | Cn1ccnc1CS(=O)(=O)Cc1nc(C(C)(C)C)cs1 | -8 | 1.14 | – | –
86 | O=C(N[C@H]1CCCCNC1=O)c1sc2ccccc2c1Cl | -17 | 2.58 | – | –
